# The other results are listed elsewhere or left out. One pool of 16,384 single-stranded DNAs met each Rep nickase domain in vitro at 3 µM enzyme and 37 °C for 1 h; the strands have 90 letters, of which the middle is given. Numbers give uncut DNA relative to the enzyme-free pool, as log2; strong cutting gives strongly negative numbers. There is no active / inactive call. Counts are relative to all reads, so uncut sequences can rise above 0 when many others are cut.
# How the values were obtained:
# Assay in all cases: uncleaved DNA left, log2 of reads against the no-enzyme library (log2 ratio); higher = less cleavage (more negative = more Rep cleavage of the k-mer); sequences stand for … in CTCGTCCG…ACCGGAGA
# [1] = tested on: T1, Rep nickase domain of Muscovy duck circovirus
# T1 sequence (Rep 1-111, printed without the tag): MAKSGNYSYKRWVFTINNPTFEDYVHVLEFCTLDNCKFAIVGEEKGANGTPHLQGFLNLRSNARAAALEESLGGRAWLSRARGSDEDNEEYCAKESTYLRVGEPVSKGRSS
# Method: (§1)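 A pool of 90-nt single-stranded DNAs with seven random bases just before the constant AC of the nick site (name = the seven bases) was cut by 3 µM recombinant His6-SUMO-tagged Rep nickase domain (300 nM DNA, 50 mM HEPES pH 8.0, 50 mM NaCl, 1 mM MnCl2, 1 h, 37 °C, three replicates). Uncut DNA was amplified and sequenced.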
# [2] = tested on: T2, Rep nickase domain of banana bunchy top virus
# T2 sequence (Rep 1-94, printed without the tag): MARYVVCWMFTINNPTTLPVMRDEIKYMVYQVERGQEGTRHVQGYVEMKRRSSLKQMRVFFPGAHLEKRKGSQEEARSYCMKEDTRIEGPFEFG
# Method: as §1
# [3] = tested on: T3, Rep nickase domain of cabbage leaf curl virus
# T3 sequence (Rep 1-116, printed without the tag): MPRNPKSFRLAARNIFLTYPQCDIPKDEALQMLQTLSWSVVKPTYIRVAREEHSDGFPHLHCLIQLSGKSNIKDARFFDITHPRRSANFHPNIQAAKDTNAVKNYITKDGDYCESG
# Method: as §1
# [4] = tested on: T4, Rep nickase domain of chickpea chlorotic dwarf virus
# T4 sequence (Rep 1-124, printed without the tag): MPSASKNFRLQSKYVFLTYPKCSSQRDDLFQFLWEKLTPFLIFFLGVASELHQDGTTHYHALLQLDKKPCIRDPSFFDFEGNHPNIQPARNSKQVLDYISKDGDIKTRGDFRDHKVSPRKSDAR
# Method: as §1
# [5] = tested on: T5, Rep nickase domain of faba bean necrotic yellows virus
# T5 sequence (Rep 1-98, printed without the tag): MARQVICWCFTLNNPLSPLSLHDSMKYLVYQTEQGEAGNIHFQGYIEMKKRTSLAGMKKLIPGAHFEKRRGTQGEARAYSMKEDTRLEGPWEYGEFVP
# Method: as §1
# [6] = tested on: T6, Rep nickase domain of maize striate mosaic virus
# T6 sequence (Rep 1-117, printed without the tag): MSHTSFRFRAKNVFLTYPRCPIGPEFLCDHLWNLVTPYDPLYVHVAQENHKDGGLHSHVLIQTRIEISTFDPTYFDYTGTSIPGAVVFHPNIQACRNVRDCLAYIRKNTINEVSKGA
# Method: as §1
# [7] = tested on: T7, Rep nickase domain of porcine circovirus 2
# T7 sequence (Rep 2-116, printed without the tag): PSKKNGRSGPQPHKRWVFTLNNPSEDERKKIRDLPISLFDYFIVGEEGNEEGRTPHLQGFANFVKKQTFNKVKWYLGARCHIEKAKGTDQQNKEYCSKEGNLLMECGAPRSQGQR
# Method: as §1
# [8] = tested on: T8, Rep nickase domain of tomato golden mosaic virus
# T8 sequence (Rep 1-124, printed without the tag): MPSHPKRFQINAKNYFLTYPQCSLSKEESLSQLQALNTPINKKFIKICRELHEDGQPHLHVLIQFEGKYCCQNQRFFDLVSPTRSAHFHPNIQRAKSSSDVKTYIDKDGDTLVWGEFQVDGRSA
# Method: as §1
# [9] = tested on: T9, Rep nickase domain of tomato yellow leaf curl virus
# T9 sequence (Rep 1-136, printed without the tag): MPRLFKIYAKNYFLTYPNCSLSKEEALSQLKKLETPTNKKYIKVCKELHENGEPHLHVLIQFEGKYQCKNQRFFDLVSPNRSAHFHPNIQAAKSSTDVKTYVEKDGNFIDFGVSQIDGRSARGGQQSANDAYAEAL
# Method: as §1
# [10] = tested on: T10, Rep nickase domain of wheat dwarf virus
# T10 sequence (Rep 1-137, printed without the tag): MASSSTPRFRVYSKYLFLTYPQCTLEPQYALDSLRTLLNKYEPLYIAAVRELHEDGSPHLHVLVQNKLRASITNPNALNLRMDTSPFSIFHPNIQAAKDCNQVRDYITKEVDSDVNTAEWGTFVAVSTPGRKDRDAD
# Method: as §1
Sequence,uncleaved DNA left (log2) [1],uncleaved DNA left (log2) [2],uncleaved DNA left (log2) [3],uncleaved DNA left (log2) [4],uncleaved DNA left (log2) [5],uncleaved DNA left (log2) [6],uncleaved DNA left (log2) [7],uncleaved DNA left (log2) [8],uncleaved DNA left (log2) [9],uncleaved DNA left (log2) [10]
ACCCCCA,-0.0808,-0.0943,-0.16,-1.05,-0.159,-0.547,-0.205,-0.0815,-0.185,-0.16
CCCCTAA,-0.0338,-0.209,-0.143,-0.629,-0.0703,-0.698,-0.318,0.0171,-0.209,-0.101
AGAGGAC,0.0726,0.135,0.448,1.5,0.0809,1.65,0.233,0.216,0.00533,0.149
AGCGCTA,-0.031,0.0329,-0.0249,0.487,-0.0115,1.38,-0.0876,0.0823,-0.0044,0.0275
GCAGATA,-0.169,-0.0918,-0.122,-0.468,-0.0299,0.0403,0.045,-0.02,-0.103,0.0229
GACCAGT,0.0215,0.0585,0.114,-0.0611,0.0127,0.115,-0.122,-0.0578,0.102,-0.00817
GTCTTGA,-0.000802,0.0907,0.304,0.79,-0.0172,1.7,0.11,0.129,0.0592,0.0144
CAGGTCT,0.0225,-0.0169,-0.0317,-1.78,-0.0532,0.686,-1.57,0.0266,-0.0159,-0.0241
ACGGACA,0.0818,0.0323,0.245,0.503,0.00402,1.08,0.164,0.135,0.0417,0.0867
GAGATCC,0.0241,-0.0172,0.333,0.826,-0.0316,1.24,0.00863,0.00485,0.0652,0.088
ATAGAGT,0.172,-0.00351,-0.122,0.133,0.00643,-0.321,0.0538,0.0825,-0.106,-0.0518
GCTGTCG,0.124,0.0145,0.0477,1.43,0.0395,1.06,0.0109,0.133,-0.00437,-0.0541
ACGGCCA,-0.0832,-0.0169,-0.183,-0.574,-0.0644,-0.362,-0.136,-0.00262,-0.0732,-0.127
CTGAATG,0.167,0.184,0.116,0.467,0.21,0.297,0.3,0.222,0.124,0.246
GAAGTCC,0.0747,0.0923,0.247,0.335,0.0389,0.726,0.066,0.0388,0.127,0.117
CAAGAGG,0.077,0.173,0.217,0.909,0.144,0.163,0.203,0.16,0.0697,0.176

Sequence,uncleaved DNA left (log2) [1],uncleaved DNA left (log2) [2],uncleaved DNA left (log2) [3],uncleaved DNA left (log2) [4],uncleaved DNA left (log2) [5],uncleaved DNA left (log2) [6],uncleaved DNA left (log2) [7],uncleaved DNA left (log2) [8],uncleaved DNA left (log2) [9],uncleaved DNA left (log2) [10]
GTATCTT,-0.536,-0.0331,0.186,0.559,0.00608,1.74,-0.649,-0.0391,-0.0411,-0.0148
GCCTACC,-0.114,-0.137,-0.112,-1.41,-0.0894,0.03,-0.503,-0.175,-0.115,-0.189
ATATAAC,0.0722,-0.0117,-0.477,-1.73,0.0951,-0.834,0.159,0.18,-0.0251,0.0907
GGGGGAT,0.0255,0.0768,0.732,1.96,-0.027,2.21,0.152,-0.0713,0.00345,0.139
GGTGCTG,-0.014,-0.00672,0.0693,0.769,-0.0768,1.43,0.0749,-0.0205,-0.154,-0.0444
TCTATTT,-0.149,0.00223,-0.0949,-2.45,0.00339,-0.422,-0.965,0.00772,0.0156,-0.24
GTGCTTT,0.0175,0.0335,0.372,0.631,0.0272,1.52,0.145,0.00643,0.102,0.054
GGGAGGG,0.103,0.0666,0.755,1.82,-0.0153,2.03,0.204,0.043,-0.0214,0.12
TGAAGCC,0.000109,-0.0479,-0.037,-0.403,-0.0351,-0.514,0.0904,-0.0691,-0.0113,-0.0743
CTGCGGG,-0.0212,-0.0491,-0.462,-0.377,0.0141,-0.971,0.037,-0.101,-0.103,-0.255
AGCTGGT,0.0431,0.054,0.273,1.05,0.0509,1.37,-0.842,0.1,0.0332,0.042
CACACCA,-0.213,-0.156,-0.206,-2.55,-0.0933,-0.652,-0.279,-0.2,-0.174,-0.107
GCCTGGC,0.096,0.0434,0.0107,0.261,0.0687,-0.28,0.128,0.112,0.108,0.0255
CCTTAAC,0.0673,-0.0657,-0.37,-1.89,0.108,-0.909,-0.0069,-0.067,-0.131,0.0797
AGGCCTG,0.0537,0.00297,0.263,0.893,-0.0918,1.7,0.248,0.161,-0.0677,0.00566

# Source: the supplement of paper PMC7826260
